Data: the supplement of paper PMC10126150
Values marked as one replicate rest on one cluster of the flow cell; about a third of the high ones do not repeat.

System: ATP
Assay: switch fluorescence ratio, 500 uM ATP over buffer (Cy3 cluster intensity, sum of 5 cycles each) (fold (ratio)); higher = stronger signal-on switching upon ATP binding; sequences stand for … in TCGTCGGCAGCGTCAGATGTGTATAAGAGACAGTTTTTTTTTTTTTTTTTTTTTTTTT…TC
Details: aptamer strand: ATP DNA aptamer (quencher-CACCTGGGGGAGTATTGCGGAGGAAGG + anchor), 100 nM annealed; ATP concentration: 500 uM; one replicate
Procedure, shortened: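 Five buffer/ATP imaging cycles were run on Cy3-labelled switching-strand clusters on a modified Illumina MiSeq flow-cell, with NaOH stripping and re-annealing between cycles. In each cycle, clusters annealed to 100 nM quencher-labelled ATP aptamer were imaged in selection buffer, then after 15 min with 500 uM ATP at 22 °C. Per cluster, the fluorescence ratio is summed target-cycle over summed buffer-cycle Cy3 intensity, averaged per switch-domain sequence. Only clusters within 100-1000 RFU were kept.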
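Also: ATP exposure 15 min at 22 °C before imaging.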

Sequence | switch fluorescence ratio
CGGGAAAGTA | 0.988
TGAGGGTTAC | 1.04
GGGTATGCTA | 1
AGCCATACTG | 1.37
ACGCGTGAGT | 1.04
CGGCCGGTCG | 1.04
GTTAGTCTTT | 0.984
TATCAATATA | 0.974
GTGGAGAATA | 0.974
GTAAAATTTT | 0.992
TGTTAGCGGG | 0.984
ATGGGAATAG | 1
GGGCCCTCGC | 1.01
CCCTAGGGAA | 1.04
AACAGATGTC | 0.907
CTCGAAGTTT | 0.996
CTATCATCGT | 0.988
AAGAGGATCA | 1
TGGACACATA | 1.2
CCGAATGAGT | 1.02
TTGACGGT | 0.99
AGTACTAGCC | 1.01
TAAAGCACCT | 1.07
CTCATGTACA | 1.04
TCGTTTTCTC | 0.975
TGGTGGGTAA | 1

Sequence | switch fluorescence ratio
TTGTCGAAAG | 0.969
CGAACAATCG | 1.01
AGAAAATAAA | 1.05
CAGATTAAGA | 1.01
ATACCTGGCG | 1.04
AAAGTGCCTG | 0.943
TCTAAGTTCC | 0.993
TTAGATAATA | 1.01
ATGTTTGTGA | 1.01
GTGTGATGGC | 1.01
TCCTAATAGG | 1
TCCAGTGCAT | 1.02
GAATATTACT | 0.988
GCTAAGAACT | 0.997
TGTAGTTCAG | 1.02
GGATGTGCTA | 0.982
CTGATTCTGA | 0.991
TATCTAGTT | 1.02
TTGTCCGGCG | 0.971
CCCTGCGGCG | 1.06
TACTGTTAGC | 1.05
TCCAGGCAA | 4.12
GCGAGTTATC | 1
CGGATCAGAC | 1.09
AGTGACGCTT | 1.05
TCAAAGTTCT | 0.96

Sequence | switch fluorescence ratio
ATGTCGGTCT | 0.959
AATGCGCCTT | 1.02
GTACGTGCGG | 0.985
CGCTGATGTG | 0.975
CGCGTTAGTC | 1.04
AATGGTACTC | 1.04
TGCTACTCTC | 1.26
GGTCCAGCG | 0.993
TGCATATTCG | 1.02
ATTAGGTGTA | 1.04
TCGGGTGTTT | 1.04
CCCACAACAG | 1.02
TTCGGTATT | 0.998
GCGCTACATT | 1.05
ATTGGCCGGC | 1.11
TCATCCATAT | 1.04
AAACTGGTTG | 1.01
CATTATCGTT | 0.991
GAGGGTGGTC | 0.967
GGTGAGTGGG | 1.02
TGCGACAAAC | 1.37
AGGACGTTA | 1.1
GTGTGGCACG | 1.01
ACCAAAATT | 1.04
AACGGGCCTG | 1.01
GGGGTTATC | 0.934

Sequence | switch fluorescence ratio
GGACGAAGTA | 0.995
CGTATTTGTG | 1.02
GACCGATTTC | 1.05
TATCGCAGCC | 1.15
TAGTTGGCG | 0.989
AGGCCCATTG | 0.993
CATGGAGCAC | 1.41
CAACCCCCGA | 1.33
GCAGCTTT | 1.03
AGGCTTGGAC | 0.987
CGGCGGGATG | 1.01
TACGTACGCG | 1.39
CCGTTCTTAG | 1.04
GAAAAGACCC | 1
AAGTCAGATG | 0.949
AAAGCCCGCC | 1.07
GTTTACGAGC | 0.998
TGGATGCAAG | 1.01
CTTACACCTG | 1.07
CGCGTATCAT | 0.998
AATGTTCTAG | 1
TTAGTGAAAG | 1.01
TCATAAATAT | 0.934
CACCGTGCTC | 1.39
GTTATGCCTA | 0.931
TAGCCGTTAT | 0.98

Sequence | switch fluorescence ratio
ACCTGCATCA | 1.15
CTGTAAAGGT | 0.991
TCACTATGG | 1.08
AGCCGTTGTC | 0.993
CTTGAATGTT | 1.03
TGATTAGGAT | 0.94
TAAGTCTTAA | 0.939
TGCTACTTT | 0.987
AGAGGGGCAT | 0.979
TAAACGACCA | 1.07
GATGTTAATG | 0.987
TGCCGGCTTT | 1.03
CTGCGGGGAA | 1.03
TGAGTTCCCT | 1.03
CTGGTTACG | 0.959
CGGGGTCGCT | 0.926
AGCAACAACG | 1.03
TAGGATGGTC | 0.942
TCTAATGAAG | 1.01
TGATCGCAGG | 1.07
ACATGCGCTT | 1.04
GCGCCCAGTG | 3.4
TGGCGCCTGC | 0.974
GTCTCACTTG | 1.01
ATGAAGGATT | 1.02
TTGGGAATAG | 1.03

Sequence | switch fluorescence ratio
GTCCTCGGGG | 0.917
TCGCTGCGT | 1.04
AGACAGGCAG | 1.04
CTGAGCCG | 1.07
CTCAGAAGTG | 1.02
GGCTGAAGCG | 0.928
AGCTACGGGT | 1.04
TGGTGCAGAC | 1.13
ACTGCCGGGC | 0.996
GGATGGCCCA | 0.953
TCTGTAAAAG | 0.988
GGGACTGGAT | 1.04
CTGATTGGGT | 1.16
TCGGCAAATG | 1.05
TGCGGAACG | 1.03
ACATTGTCTG | 0.928
TCAGTGAGGG | 0.979
ATATTTTCGG | 1.01
AAAAGGCCCA | 0.995
CATAGCGTAA | 1.1
CGTAGACATA | 1.13
GATACGTAAT | 1.48
AACCTCTCTA | 1.04
